The values below come from paper PMC12056172 (Nature Communications, 2025).

This data set concerns the molecule itself. In words: SEC.

B1: SNAP-tagged DAAM1 FH2-COOH (+MIC) (domain or fragment)
chain: not shown
modifications: SNAP tag labelled with a fluorophore (printed as DAAM1-SNAP-Alexa488 and as DAAM1-SNAP-Atto488)
On to B1, for which the binding result is “binds”.
